Measured values: PubChem BioAssay AID624417 (National Center for Advancing Translational Sciences (NCATS), 2012)
Out of some 410,000 compounds screened, about 6,400 (1.6%) were called active. Inconclusive results, whose numbers are uncertain, are shown with a selection of clear calls. Calls follow the shape of the dose curve; as a rule, active = well fitted inhibition curve with a large enough effect; inconclusive = small, poorly fitted or top-dose-only effect; inactive = no such curve, though single readings can be large or run the other way. Potencies of inconclusive entries are left out as doubtful fits.

The molecules below were run against Glucagon-like peptide 1 receptor (Homo sapiens) (UniProt P43220) (assay: qHTS of GLP-1 Receptor Inverse Agonists (Inhibition Mode)). Details: HEK293 GLP-1R CRE-luciferase, luminescence, 24 h, GLP-1R form is constitutively active; activity change, negative = inhibition: at 38.3 µM (top of the series) unless noted.
Sequence of UniProt P43220 (P43220 whole entry, looked up): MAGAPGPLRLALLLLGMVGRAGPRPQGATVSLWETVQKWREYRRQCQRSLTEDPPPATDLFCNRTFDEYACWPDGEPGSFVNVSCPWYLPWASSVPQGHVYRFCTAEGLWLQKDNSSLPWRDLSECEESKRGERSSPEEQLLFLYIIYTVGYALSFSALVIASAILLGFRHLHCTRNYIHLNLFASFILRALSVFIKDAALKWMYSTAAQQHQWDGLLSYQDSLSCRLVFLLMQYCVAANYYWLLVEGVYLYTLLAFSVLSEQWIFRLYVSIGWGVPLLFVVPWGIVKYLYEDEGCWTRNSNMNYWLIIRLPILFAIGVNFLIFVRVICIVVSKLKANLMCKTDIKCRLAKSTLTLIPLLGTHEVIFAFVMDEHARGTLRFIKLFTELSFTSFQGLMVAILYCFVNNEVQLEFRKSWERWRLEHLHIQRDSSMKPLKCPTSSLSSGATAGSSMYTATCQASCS
Outline: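 Inverse agonists were sought by their lowering of basal cAMP reporter luciferase output in HEK293 cells stably carrying constitutively active human GLP-1R, after 24 h compound treatment.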
% is scaled to controls: 0 for no effect and ±100 for the full control effect; potency is read from the fitted curve at half-maximal effect; tags tell the direction and shape of the fitted curve.
Also: nearly all actives have a fitted effect of over 55% in size.

Row | SMILES | activity change, negative = inhibition | Potency
1 | CCOC(=O)c1c(NC(=O)c2ccco2)sc2c1CCCC2 | inactive: 3.83% | –
2 | COc1cccc(/C=C/C(=O)OCC(=O)NCCC2=CCCCC2)c1OC | inactive: -21.2% | –
3 | O=C(CSc1ccc2ccccc2n1)N/N=C/c1ccc(O)cc1 | – | inconclusive [inhibitor, partial curve, poor fit]
4 | COc1ccc(NC(=O)c2sc(N3CCOCC3)nc2-c2ccccc2)c(OC)c1 | – | inconclusive [inhibitor, single point]
5 | Cc1ccc(C)c(CN2CCCN(CC(=O)Nc3ccc(C)c(C)c3)S2(=O)=O)c1 | – | inconclusive [inhibitor, single point]
6 | O=S(=O)(c1ccc(OCC(O)CNC23CC4CC(CC(C4)C2)C3)c(Cl)c1)N1CCOCC1 (stereo not given) | – | inconclusive [inhibitor, full curve, poor fit]
7 | Cc1ccc(CNC(=O)CN2C(=O)NC3(CC(C)CC(C)(C)C3)C2=O)cc1 (stereo not given) | inactive: -3.62% | –
8 | c1ccc(-c2ccccc2OCCn2cncn2)cc1 | – | inconclusive [inhibitor, single point]
9 | CC1(C(=O)NS(=O)(=O)c2cccc(Cl)c2)CCN1C(=O)Cc1ccc(-c2ccccc2)cc1 (stereo not given) | – | inconclusive [inhibitor, partial curve, poor fit]
10 | COc1cc(C)nc(-n2nc(C)cc2OC)n1 | inactive: 3.6% | –
11 | Fc1ccc(C(NCCc2ccccc2)c2nnc(-c3ccccc3Cl)o2)cc1 (stereo not given) | – | inconclusive [inhibitor, partial curve, poor fit]
12 | CCCCCCC1CCC(C(=O)Nn2c(C)nc3ccccc3c2=O)CC1 (stereo not given) | – | inconclusive [inhibitor, partial curve, poor fit]
13 | COc1ccc(C)cc1NS(=O)(=O)c1ccc2c(c1)NC(=O)C(C)S2 (stereo not given) | – | inconclusive [inhibitor, single point]
14 | O=C(CNCC1CCCCC1)Nc1ccccc1N1CCCCC1 | – | inconclusive [inhibitor, partial curve, poor fit]
15 | Cc1ccc(Cc2cnc(NC(=O)c3ccco3)s2)cc1 | – | inconclusive [inhibitor, single point]
16 | CCCCCCn1c(=O)n2n(c1=O)C[C@]1(OC(=O)NCc3ccc(OC)c(OC)c3)CN(S(=O)(=O)c3ccc(C)cc3)C[C@]1(O)C2 | – | inconclusive [inhibitor, single point]
17 | CCCNC(=O)/C=C/c1ccc(C(C)C)cc1 | inactive: 0.87% | –
18 | Nc1nc2c(ncn2[C@@H]2O[C@H](CNS(=O)(=O)N3CCCC3)[C@@H](O)[C@H]2O)c(=O)[nH]1 | inactive: 24.7% | –
19 | COc1ccc(OC)c(-n2c(N)c(C(=O)NCC3CCCO3)c3nc4ccccc4nc32)c1 (stereo not given) | – | inconclusive [inhibitor, partial curve, poor fit]
20 | O=C(Cn1cccc1C(=O)c1ccccc1)NCc1ccccc1Cl | – | inconclusive [inhibitor, partial curve, poor fit]

Row | SMILES | activity change, negative = inhibition | Potency
21 | CCOc1ccc(-n2c(C)nc3cc(C(=O)NCc4ccco4)ccc32)cc1 | – | inconclusive [inhibitor, partial curve, poor fit]
22 | FC(F)(F)COc1nc(OCC(F)(F)F)nc(N2CCN(c3ccccc3)CC2)n1 | – | active: 5.01 µM
23 | CC(C)(C)NCC(=Cc1ccccc1)C(=O)c1ccccc1 | – | inconclusive [inhibitor, full curve, poor fit]
24 | COC(=O)c1cc2sccc2n1CC(=O)Nc1ccc(OC)c(OC)c1 | inactive: 6.31% | –
25 | Nc1nc(N2CCN(C(=O)c3ccco3)CC2)nc2ccc(Br)cc12 | – | inconclusive [inhibitor, single point]
26 | CC1CC(OCC(O)CN2CCN(Cc3ccccc3)CC2)CC(C)(C)C1 (stereo not given) | – | inconclusive [inhibitor, partial curve, poor fit]
27 | C=CCn1c(=NC(=O)c2cccs2)sc2cccc(OC)c21 | – | inconclusive [inhibitor, single point]
28 | Cc1ccc(C(=O)O)cc1NC(=S)NC(=O)Cc1ccccc1 | inactive: -17.8% | –
29 | O=C(CCOc1ccccc1)Nc1nnc(-c2ccc3c(c2)OCCO3)o1 | – | inconclusive [inhibitor, partial curve, poor fit]
30 | Cc1cc(C)n(-c2cc(N3CCN(C(=O)c4cccc(Br)c4)CC3)ccc2[N+](=O)[O-])n1 | – | inconclusive [inhibitor, partial curve, poor fit]
31 | O=C1NC2(CCCCCC2)C(=O)N1Cc1ccc(F)cc1Cl | – | inconclusive [inhibitor, single point]
32 | COC(=O)c1cccc(NC(=O)c2cc3ccccc3o2)c1 | – | inconclusive [inhibitor, single point]
33 | CN(CC(=O)NCc1ccc(F)cc1)S(=O)(=O)c1ccc2[nH]c3c(c2c1)CCCC3 | – | inconclusive [inhibitor, single point]
34 | COc1ccc(CC(=O)O/N=C(\N)Cc2ccc([N+](=O)[O-])cc2)cc1 | – | inconclusive [inhibitor, single point]
35 | CCCN(C(=O)C1CCCN(c2ncnc3c2nc2n3CCCCC2)C1)c1ccc(F)cc1 (stereo not given) | – | inconclusive [inhibitor, full curve, poor fit]
36 | CC(=O)NC(=S)Nc1sc2c(c1C#N)CCCCC2 | inactive: 33.9% | –
37 | Clc1ccccc1-c1nc2nc3ccccc3nc2n1-c1ccc2c(c1)OCO2 | – | inconclusive [inhibitor, partial curve, poor fit]
38 | CCOC(=O)c1ccc(/C=C2\c3ccccc3C(=O)N2c2ccccc2)cc1F | – | inconclusive [inhibitor, partial curve, poor fit]
39 | COCc1c(C(=O)N2CCc3ccccc32)oc2ccccc12 | – | inconclusive [inhibitor, partial curve, poor fit]
40 | COc1ccc(N(C)C(=O)c2cc3c(s2)-c2c(C)cccc2OC3)c(OC)c1 | – | inconclusive [inhibitor, single point]
